T1: human GITR-His (human, UniProt Q9Y5U5 26-161)
T1 construct: Bought from Acro biosystems; also called GITR-His (Acro biosystems); antigen GITR-His
T1 sequence: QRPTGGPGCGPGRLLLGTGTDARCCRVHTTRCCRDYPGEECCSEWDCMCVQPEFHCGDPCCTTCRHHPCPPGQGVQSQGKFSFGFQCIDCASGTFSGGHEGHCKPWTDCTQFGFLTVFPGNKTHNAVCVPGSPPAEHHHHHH

B1: 4×Nb-IgG-II (antibody)
heavy: QVQLQESGGGLVQPGGSLRLSCAASGYSRTSRWMAWFRQAPGKGLEGVAAIYTGGSSTLYADSVKGRFTISRDNAKNSVYLQMNSLRAEDTAVYYCAADKLAGDFWLVDRWRAWGQGTLVTVSSGGGGSQVQLQESGGGLVQPGGSLRLSCAASGYSRTSRWMAWFRQAPGKGLEGVAAIYTGGSSTLYADSVKGRFTISRDNAKNSVYLQMNSLRAEDTAVYYCAADKLAGDFWLVDRWRAWGQGTLVTVSS[sequence of human IgG1 Fc not given]
notes: Tetravalent form with four identical nanobody regions: VHH of HzhcIgG-20 linked to the N-terminus of HzhcIgG-20 via GGGGS; two identical chains; also called 4xNb-IgG-II
B2: 4×Nb-IgG-III (antibody)
heavy: QVQLQESGGGLVQPGGSLRLSCAASGYSRTSRWMAWFRQAPGKGLEGVAAIYTGGSSTLYADSVKGRFTISRDNAKNSVYLQMNSLRAEDTAVYYCAADKLAGDFWLVDRWRAWGQGTLVTVSSQVQLQESGGGLVQPGGSLRLSCAASGYSRTSRWMAWFRQAPGKGLEGVAAIYTGGSSTLYADSVKGRFTISRDNAKNSVYLQMNSLRAEDTAVYYCAADKLAGDFWLVDRWRAWGQGTLVTVSS[sequence of human IgG1 Fc not given]
notes: Tetravalent form with four identical nanobody regions: VHH of HzhcIgG-20 linked directly to the N-terminus of HzhcIgG-20; two identical chains; also called 4xNb-IgG-III
B3: 4×Nb-IgG-I (antibody)
heavy: QVQLQESGGGLVQPGGSLRLSCAASGYSRTSRWMAWFRQAPGKGLEGVAAIYTGGSSTLYADSVKGRFTISRDNAKNSVYLQMNSLRAEDTAVYYCAADKLAGDFWLVDRWRAWGQGTLVTVSS[sequence of human IgG1 Fc not given]GGGGSQVQLQESGGGLVQPGGSLRLSCAASGYSRTSRWMAWFRQAPGKGLEGVAAIYTGGSSTLYADSVKGRFTISRDNAKNSVYLQMNSLRAEDTAVYYCAADKLAGDFWLVDRWRAWGQGTLVTVSS
notes: Tetravalent form with four identical nanobody regions: VHH of HzhcIgG-20 linked to the C-terminus of HzhcIgG-20 via GGGGS; two identical chains; also called 4xNb-IgG-I

Biological target: T1, human GITR-His
Assay: ForteBio BLI, antibody on AHQ tip, human GITR-His 100 nM in solution
Method: (2) Experimental procedure: 100 μl of SD buffer and antibodies (hcIgG-02, hcIgG-03, hcIgG-04, hcIgG-07, hcIgG-09, hcIgG-10, hcIgG-16 and hcIgG-20, control antibody), GITR-His (Acro biosystems) were added to a 96-well half-volume black polystyrene microplate. The plate was arranged according to the positions of the samples, the position of the sensor was selected, and the operation procedures were set as: Baseline, Loading ˜1 nm, Baseline, Association and Dissociation, each running for a time depending on the binding and dissociation rates of the sample, at a rotation speed of 400 rpm and a temperature of 30° C.
In this experiment, kinetics and affinity for the antigen-antibody binding were determined using the ForteBio method in the same way as in Example 4.

Kd [nM]	koff [s⁻¹]	kon [M⁻¹ s⁻¹]	Binder
8.65	0.000659	76200	B1
6.85	0.000655	95600	B2
4.6	0.000636	138000	B3

Source: US20220267458A1 (Innovent, published 2022)
